# In article PMC9911399, “Two distinct binding modes provide the RNA-binding protein RbFox with extraordinary sequence specificity”:
# Residue numbers refer to the chain shown, from its start. The list shows a part of the results.
# T1: RBFOX1 RRM RbFoxmut (Fox-RRM*) (Homo sapiens, UniProt Q9NWB1 109-208, R118D;E147R;N151S;E152T)
# T1 sequence: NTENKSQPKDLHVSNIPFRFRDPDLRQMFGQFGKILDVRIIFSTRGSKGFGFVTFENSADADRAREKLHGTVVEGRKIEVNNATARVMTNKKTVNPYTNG
# B1: UACGAAG (DNA:RNA)
# RNA: GGGAGACCGGAAUUCAGAUUGUCCUACGAAGUUAAAUCCCGUCGUAGCCACCA
# DNA 1: CAATCTGAATTCCGGTCTCCC
# DNA 2: TGGTGGCTACGACGGGATT
# B2: GAGGUUC (DNA:RNA)
# RNA: B1 RNA with U25G, C27G, A29U, A30U, G31C
# DNA 1: CAATCTGAATTCCGGTCTCCC
# DNA 2: TGGTGGCTACGACGGGATT
# B3: UUUGGAC (DNA:RNA)
# RNA: B1 RNA with A26U, C27U, A29G, G31C
# DNA 1: CAATCTGAATTCCGGTCTCCC
# DNA 2: TGGTGGCTACGACGGGATT
# B4: AAGCAUG (DNA:RNA)
# RNA: B1 RNA with U25A, C27G, G28C, A30U
# DNA 1: CAATCTGAATTCCGGTCTCCC
# DNA 2: TGGTGGCTACGACGGGATT
# B5: ACGGUCC (DNA:RNA)
# RNA: B1 RNA with U25A, A26C, C27G, A29U, A30C, G31C
# DNA 1: CAATCTGAATTCCGGTCTCCC
# DNA 2: TGGTGGCTACGACGGGATT
# B6: CGUGGCC (DNA:RNA)
# RNA: B1 RNA with U25C, A26G, C27U, A29G, A30C, G31C
# DNA 1: CAATCTGAATTCCGGTCTCCC
# DNA 2: TGGTGGCTACGACGGGATT
# B7: GUCCGUC (DNA:RNA)
# RNA: B1 RNA with U25G, A26U, G28C, A29G, A30U, G31C
# DNA 1: CAATCTGAATTCCGGTCTCCC
# DNA 2: TGGTGGCTACGACGGGATT
# B8: GCUGACU (DNA:RNA)
# RNA: B1 RNA with U25G, A26C, C27U, A30C, G31U
# DNA 1: CAATCTGAATTCCGGTCTCCC
# DNA 2: TGGTGGCTACGACGGGATT
# B9: AAUUUAU (DNA:RNA)
# RNA: B1 RNA with U25A, C27U, G28U, A29U, G31U
# DNA 1: CAATCTGAATTCCGGTCTCCC
# DNA 2: TGGTGGCTACGACGGGATT
# B10: UCAGGUU (DNA:RNA)
# RNA: B1 RNA with A26C, C27A, A29G, A30U, G31U
# DNA 1: CAATCTGAATTCCGGTCTCCC
# DNA 2: TGGTGGCTACGACGGGATT
# B11: AUGACGU (DNA:RNA)
# RNA: GGGAGACCGGAAUUCAGAUUGUCCAUGACGUUUAAAUCCCGUCGUAGCCACCA
# DNA 1: CAATCTGAATTCCGGTCTCCC
# DNA 2: TGGTGGCTACGACGGGATT
# B12: CCAUCAA (DNA:RNA)
# RNA: B11 RNA with A25C, U26C, G27A, A28U, G30A, U31A
# DNA 1: CAATCTGAATTCCGGTCTCCC
# DNA 2: TGGTGGCTACGACGGGATT
# B13: GCUGUUC (DNA:RNA)
# RNA: B1 RNA with U25G, A26C, C27U, A29U, A30U, G31C
# DNA 1: CAATCTGAATTCCGGTCTCCC
# DNA 2: TGGTGGCTACGACGGGATT
# B14: UUUUCUU (DNA:RNA)
# RNA: B11 RNA with A25U, G27U, A28U, G30U
# DNA 1: CAATCTGAATTCCGGTCTCCC
# DNA 2: TGGTGGCTACGACGGGATT
# B15: UUAGUAU (DNA:RNA)
# RNA: B1 RNA with A26U, C27A, A29U, G31U
# DNA 1: CAATCTGAATTCCGGTCTCCC
# DNA 2: TGGTGGCTACGACGGGATT
# B16: UCCCGGG (DNA:RNA)
# RNA: B1 RNA with A26C, G28C, A29G, A30G
# DNA 1: CAATCTGAATTCCGGTCTCCC
# DNA 2: TGGTGGCTACGACGGGATT
# B17: GCUCCCC (DNA:RNA)
# RNA: B11 RNA with A25G, U26C, G27U, A28C, G30C, U31C
# DNA 1: CAATCTGAATTCCGGTCTCCC
# DNA 2: TGGTGGCTACGACGGGATT
# B18: CCCCACC (DNA:RNA)
# RNA: B1 RNA with U25C, A26C, G28C, A30C, G31C
# DNA 1: CAATCTGAATTCCGGTCTCCC
# DNA 2: TGGTGGCTACGACGGGATT
# B19: AGACAUA (DNA:RNA)
# RNA: B11 RNA with U26G, G27A, A28C, C29A, G30U, U31A
# DNA 1: CAATCTGAATTCCGGTCTCCC
# DNA 2: TGGTGGCTACGACGGGATT
# B20: CUACUUA (DNA:RNA)
# RNA: B11 RNA with A25C, G27A, A28C, C29U, G30U, U31A
# DNA 1: CAATCTGAATTCCGGTCTCCC
# DNA 2: TGGTGGCTACGACGGGATT
# Molecular target: T1, RBFOX1 RRM RbFoxmut (Fox-RRM*)
# Assay: EMSA; HiTS-Eq, 1 nM pool, 10 min; buffer printed only for the single-RNA assays: 10 mM Tris pH 7.5, 150 mM NaCl, 3.4 mM EDTA, 0.001% NP-40, 30 C
# Conditions: tags: His6 N-terminal (pET28a); label: 5' 32P
# Procedure, shortened: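 Purified wild-type or mutant RbFox RRM at increasing concentrations was equilibrated with 1 nM of 5′-radiolabelled RNA carrying 7 randomized nucleotides for 10 min in 50 µL. Unbound RNA was separated by 8% native PAGE and sequenced. Relative association constants came from read-count changes of each RNA species compared with the control reaction, normalised to the cognate motif.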
row,Binder,binding signal
1,B1,0.0529 KA relative to UGCAUGU
2,B2,0.143 KA relative to UGCAUGU
3,B3,0.052 KA relative to UGCAUGU
4,B4,0.715 KA relative to UGCAUGU
5,B5,0.0923 KA relative to UGCAUGU
6,B6,0.275 KA relative to UGCAUGU
7,B7,0.0864 KA relative to UGCAUGU
8,B8,0.0786 KA relative to UGCAUGU
9,B9,0.117 KA relative to UGCAUGU
10,B10,0.0956 KA relative to UGCAUGU
11,B11,0.0869 KA relative to UGCAUGU
12,B12,0.104 KA relative to UGCAUGU
13,B13,0.0841 KA relative to UGCAUGU
14,B14,0.0775 KA relative to UGCAUGU
15,B15,0.137 KA relative to UGCAUGU
16,B16,0.0819 KA relative to UGCAUGU
17,B17,0.0605 KA relative to UGCAUGU
18,B18,0.0828 KA relative to UGCAUGU
19,B19,0.0818 KA relative to UGCAUGU
20,B20,0.162 KA relative to UGCAUGU
